# According to the supplement of paper PMC8728848:
# This is one part of the list.
# B1: Siglec-9 (Homo sapiens), Q9Y336 (protein)
# chain: MLLLLLPLLWGRERAEGQTSKLLTMQSSVTVQEGLCVHVPCSFSYPSHGWIYPGPVVHGYWFREGANTDQDAPVATNNPARAVWEETRDRFHLLGDPHTKNCTLSIRDARRSDAGRYFFKMEKGSIKWNYKHHRLSVNVTALTHRPNILIPGTLESGCPQNLTCSVPWACEQGTPPMISWIGTSVSPLDPSTTRSSVLTLIPQPQDHGTSLTCQVTFPGASVTTNKTVHLNVSYPPQNLTMTVFQGDGTVSTVLGNGSSLSLPEGQSLRLVCAVDAVDSNPPARLSLSWRGLTLCPSQPSNPGVLELPWVHLRDAAEFTCRAQNPLGSQQVYLNVSLQSKATSGVTQGVVGGAGATALVFLSFCVIFVVVRSCRKKSARPAAGVGDTGIEDANAVRGSASQGPLTEPWAEDSPPDQPPPASARSSVGEGELQYASLSFQMVKPWDSRGQEATDTEYSEIKIHR
# What was measured:
# Experiment in all cases: glycan array binding signal (z-score within array); higher = stronger binding
# Settings in all cases: glycan notation: IUPAC condensed, linker removed; mutation: R120K
# [1] = biological target: GlcNAc(b1-3)Gal(b1-4)GlcNAc(b1-3)Gal(b1-4)GlcNAc(b1-3)Gal(b1-4)GlcNAc(b1-3)Gal(b1-4)GlcNAc(b1-2)[GlcNAc(b1-3)Gal(b1-4)GlcNAc(b1-3)Gal(b1-4)GlcNAc(b1-3)Gal(b1-4)GlcNAc(b1-3)Gal(b1-4)GlcNAc(b1-6)]Man(a1-6)[GlcNAc(b1-3)Gal(b1-4)GlcNAc(b1-3)Gal(b1-4)GlcNAc(b1-3)Gal(b1-4)GlcNAc(b1-3)Gal(b1-4)GlcNAc(b1-2)Man(a1-3)]Man(b1-4)GlcNAc(b1-4)[Fuc(a1-6)]GlcNAc
# Method in brief: (§1)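 Negative Z-scores can be read as non-binding. The Z-score is calculated within each array and then averaged across arrays of one protein sequence at different concentrations or buffers and across linkers. Arrays, 3228 in all, were curated from the Consortium for Functional Glycomics database and kept only where the protein sequence was available.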
# [2] = biological target: GlcNAc(b1-3)Gal(b1-4)GlcNAc(b1-3)Gal(b1-4)GlcNAc(b1-3)GalNAc
# Method in brief: as §1
# [3] = biological target: GlcNAc(b1-3)Gal(b1-4)GlcNAc(b1-3)GalNAc
# Method in brief: as §1
# [4] = biological target: GlcNAc(b1-3)Gal(b1-4)GlcNAc(b1-3)[GlcNAc(b1-3)Gal(b1-4)GlcNAc(b1-3)]GalNAc
# Method in brief: as §1
# [5] = biological target: GlcNAc(b1-3)Gal(b1-4)GlcNAc(b1-6)[Gal(b1-3)]GalNAc
# Method in brief: as §1
# [6] = biological target: GlcNAc(b1-3)Gal(b1-4)GlcNAc(b1-6)[GlcNAc(b1-3)Gal(b1-3)]GalNAc
# Method in brief: as §1
# [7] = biological target: GlcNAc(b1-3)Gal(b1-4)GlcNAc(b1-6)[GlcNAc(b1-3)]Gal(b1-4)GlcNAc
# Method in brief: as §1
# GlcNAc(b1-3)GalNAc = biological target: GlcNAc(b1-3)GalNAc
# Method in brief: as §1
# GlcNAc(b1-3)Man = biological target: GlcNAc(b1-3)Man
# Method in brief: as §1
# [8] = biological target: GlcNAc(b1-3)[GlcNAc(b1-4)][GlcNAc(b1-6)]GlcNAc
# Method in brief: as §1
# [9] = biological target: GlcNAc(b1-3)[GlcNAc(b1-6)]Gal(b1-4)GlcNAc
# Method in brief: as §1
# [10] = biological target: GlcNAc(b1-3)[GlcNAc(b1-6)]GalNAc
# Method in brief: as §1
# [11] = biological target: GlcNAc(b1-4)Gal(b1-4)GlcNAc
# Method in brief: as §1
# GlcNAc(b1-4)GlcNAc = biological target: GlcNAc(b1-4)GlcNAc
# Method in brief: as §1
# [12] = biological target: GlcNAc(b1-4)GlcNAc(b1-4)GlcNAc
# Method in brief: as §1
# [13] = biological target: GlcNAc(b1-4)GlcNAc(b1-4)GlcNAc(b1-4)GlcNAc(b1-4)GlcNAc
# Method in brief: as §1
# [14] = biological target: GlcNAc(b1-4)GlcNAc(b1-4)GlcNAc(b1-4)GlcNAc(b1-4)GlcNAc(b1-4)GlcNAc
# Method in brief: as §1
# [15] = biological target: GlcNAc(b1-4)[GlcNAc(b1-6)]GalNAc
# Method in brief: as §1
# [16] = biological target: GlcNAc(b1-6)Gal(b1-4)GlcNAc
# Method in brief: as §1
# GlcNAc(b1-6)GalNAc = biological target: GlcNAc(b1-6)GalNAc
# Method in brief: as §1
# [17] = biological target: GlcNAc6S(b1-3)Gal(b1-4)GlcNAc
# Method in brief: as §1
# Kdn(a2-3)Gal(b1-3)GalNAc = biological target: Kdn(a2-3)Gal(b1-3)GalNAc
# Method in brief: as §1
# Kdn(a2-3)Gal(b1-3)GlcNAc = biological target: Kdn(a2-3)Gal(b1-3)GlcNAc
# Method in brief: as §1
# Kdn(a2-3)Gal(b1-4)Glc = biological target: Kdn(a2-3)Gal(b1-4)Glc
# Method in brief: as §1
# Kdn(a2-3)Gal(b1-4)GlcNAc = biological target: Kdn(a2-3)Gal(b1-4)GlcNAc
# Method in brief: as §1
# [18] = biological target: Kdn(a2-3)Gal(b1-4)[Fuc(a1-3)]GlcNAc
# Method in brief: as §1
# Kdn(a2-6)Gal(b1-4)GlcNAc = biological target: Kdn(a2-6)Gal(b1-4)GlcNAc
# Method in brief: as §1
# [19] = biological target: Man(a1-2)Man(a1-2)Man(a1-3)Man
# Method in brief: as §1
# [20] = biological target: Man(a1-2)Man(a1-2)Man(a1-6)[Man(a1-3)]Man
# Method in brief: as §1
# Man(a1-2)Man(a1-3)Man = biological target: Man(a1-2)Man(a1-3)Man
# Method in brief: as §1
# [21] = biological target: Man(a1-2)Man(a1-3)[Man(a1-2)Man(a1-6)]Man
# Method in brief: as §1
# [22] = biological target: Man(a1-2)Man(a1-3)[Man(a1-2)Man(a1-6)]Man(a1-6)[Man(a1-2)Man(a1-2)Man(a1-3)]Man
# Method in brief: as §1
# [23] = biological target: Man(a1-2)Man(a1-3)[Man(a1-2)Man(a1-6)]Man(a1-6)[Man(a1-2)Man(a1-2)Man(a1-3)]Man(b1-4)GlcNAc(b1-4)GlcNAc
# Method in brief: as §1
# [24] = biological target: Man(a1-2)Man(a1-3)[Man(a1-6)]Man(a1-6)[Man(a1-2)Man(a1-3)]Man(b1-4)GlcNAc(b1-4)GlcNAc
# Method in brief: as §1
# [25] = biological target: Man(a1-2)Man(a1-6)[Man(a1-3)]Man(a1-6)[Man(a1-2)Man(a1-2)Man(a1-3)]Man
# Method in brief: as §1
# [26] = biological target: Man(a1-2)Man(a1-6)[Man(a1-3)]Man(a1-6)[Man(a1-2)Man(a1-2)Man(a1-3)]Man(b1-4)GlcNAc(b1-4)GlcNAc
# Method in brief: as §1
# Man(a1-3)[Man(a1-6)]Man = biological target: Man(a1-3)[Man(a1-6)]Man
# Method in brief: as §1
binder,measurement,setting,value
B1,glycan array binding signal (z-score),[1],0.063
same,glycan array binding signal (z-score),[2],-0.299
same,glycan array binding signal (z-score),[3],0.35
same,glycan array binding signal (z-score),[4],0.153
same,glycan array binding signal (z-score),[5],0.1
same,glycan array binding signal (z-score),[6],-0.434
same,glycan array binding signal (z-score),[7],-0.452
same,glycan array binding signal (z-score),GlcNAc(b1-3)GalNAc,-0.395
same,glycan array binding signal (z-score),GlcNAc(b1-3)Man,-0.279
same,glycan array binding signal (z-score),[8],-0.348
same,glycan array binding signal (z-score),[9],-0.163
same,glycan array binding signal (z-score),[10],-0.393
same,glycan array binding signal (z-score),[11],0.178
same,glycan array binding signal (z-score),GlcNAc(b1-4)GlcNAc,0.101
same,glycan array binding signal (z-score),[12],-0.312
same,glycan array binding signal (z-score),[13],-0.217
same,glycan array binding signal (z-score),[14],-0.573
same,glycan array binding signal (z-score),[15],-0.512
same,glycan array binding signal (z-score),[16],-0.287
same,glycan array binding signal (z-score),GlcNAc(b1-6)GalNAc,-0.182
same,glycan array binding signal (z-score),[17],-0.404
same,glycan array binding signal (z-score),Kdn(a2-3)Gal(b1-3)GalNAc,0.274
same,glycan array binding signal (z-score),Kdn(a2-3)Gal(b1-3)GlcNAc,-0.056
same,glycan array binding signal (z-score),Kdn(a2-3)Gal(b1-4)Glc,0.194
same,glycan array binding signal (z-score),Kdn(a2-3)Gal(b1-4)GlcNAc,-0.341
same,glycan array binding signal (z-score),[18],-0.297
same,glycan array binding signal (z-score),Kdn(a2-6)Gal(b1-4)GlcNAc,0.125
same,glycan array binding signal (z-score),[19],-0.013
same,glycan array binding signal (z-score),[20],0.213
same,glycan array binding signal (z-score),Man(a1-2)Man(a1-3)Man,-0.111
same,glycan array binding signal (z-score),[21],-0.41
same,glycan array binding signal (z-score),[22],-0.436
same,glycan array binding signal (z-score),[23],-0.231
same,glycan array binding signal (z-score),[24],-0.826
same,glycan array binding signal (z-score),[25],-0.231
same,glycan array binding signal (z-score),[26],0.084
same,glycan array binding signal (z-score),Man(a1-3)[Man(a1-6)]Man,-0.048
